Assay [1] addresses T1, mouse B7H4 on the cell surface (mouse, UniProt Q7TSP5 25-257).
T1 construct: whole, on cells; also called CHOK1/m B7H4
T1 sequence (looked up): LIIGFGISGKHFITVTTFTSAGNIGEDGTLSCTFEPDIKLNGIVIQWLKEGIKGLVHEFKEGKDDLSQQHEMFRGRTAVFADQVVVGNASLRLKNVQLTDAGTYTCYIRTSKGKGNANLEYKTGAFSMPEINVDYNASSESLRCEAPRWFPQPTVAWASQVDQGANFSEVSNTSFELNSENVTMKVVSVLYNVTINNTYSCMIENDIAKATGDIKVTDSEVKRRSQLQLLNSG
The assay can be described thus: FACS, CHOK1/m B7H4 cells. On the procedure: (§1) This example is intended to investigate the in vitro binding activity of anti-human B7H4 H2L2 monoclonal antibody to human/cynomolgus monkey/mouse B7H4. Antibody binding experiments at the cellular level were performed using CHOK1 cell line overexpressing human B7H4 (CHOK1/hu B7H4, Harbour BioMed), CHOK1 cell line overexpressing cynomolgus monkey B7H4 (CHOK1/cyno B7H4, Harbour BioMed), CHOK1 cell line overexpressing mouse B7H4 (CHOK1/m B7H4, Harbour BioMed) and SK-BR-3 cell line (ATCC® HTB-30) highly expressing human B7H4. Briefly, CHOK1/hu B7H4 cells, CHOK1/cyno B7H4 cells, CHOK1/m B7H4 cells or SK-BR-3 cells were digested and resuspended with PBS containing 2% BSA. The cell density was adjusted to 1×10⁶ cells/mL. The cells were seeded in a 96-well V-bottom plate (Corning, #3894) at 100 μL/well, followed by the addition of test antibodies diluted in a 3-fold concentration gradient of 2 times the final concentration, each at 100 μL/well. The cells were incubated at 4° C. for 2 h away from light. Thereafter, the cells in each well were rinsed twice with 100 μL of pre-cooled PBS containing 2% BSA, and centrifuged at 500 g at 4° C. for 5 min, and then the supernatant was discarded. […] Finally, the cells in each well were resuspended with 200 μL of pre-cooled PBS containing 2% BSA, and the fluorescence signal values were read using an ACEA Novocyte3000 flow cytometer.
For orientation: Flow cytometry measures light scatter and fluorescence of single cells or particles in a stream.

Assay [2] concerns the target T1, mouse B7H4 on the cell surface. Briefly: FACS, CHOK1/m B7H4 cells. On the procedure:
(§2) This example is intended to investigate the in vitro binding activity of anti-human B7H4 H2L2 monoclonal antibody to human/cynomolgus monkey/mouse B7H4. Antibody binding experiments at the cellular level were performed using CHOK1 cell line overexpressing human B7H4 (CHOK1/hu B7H4, Harbour BioMed), CHOK1 cell line overexpressing cynomolgus monkey B7H4 (CHOK1/cyno B7H4, Harbour BioMed), CHOK1 cell line overexpressing mouse B7H4 (CHOK1/m B7H4, Harbour BioMed) and SK-BR-3 cell line (ATCC® HTB-30) highly expressing human B7H4. Briefly, CHOK1/hu B7H4 cells, CHOK1/cyno B7H4 cells, CHOK1/m B7H4 cells or SK-BR-3 cells were digested and resuspended with PBS containing 2% BSA. The cell density was adjusted to 1×10⁶ cells/mL. The cells were seeded in a 96-well V-bottom plate (Corning, #3894) at 100 μL/well, followed by the addition of test antibodies diluted in a 3-fold concentration gradient of 2 times the final concentration, each at 100 μL/well. The cells were incubated at 4° C. for 2 h away from light. Thereafter, the cells in each well were rinsed twice with 100 μL of pre-cooled PBS containing 2% BSA, and centrifuged at 500 g at 4° C. for 5 min, and then the supernatant was discarded. Then 100 μL of a fluorescent secondary antibody (Alexa Fluor 488-conjugated AffiniPure Goat Anti-Human IgG, Fcγ Fragment Specific, Jackson, #109-545-098, 1:500 diluted) was added to each well. The plate was incubated away from light at 4° C. for 1 h. The cells in each well were washed twice with 100 μL of pre-cooled PBS containing 2% BSA, and centrifuged at 500 g at 4° C. for 5 minutes, and then the supernatant was discarded. Finally, the cells in each well were resuspended with 200 μL of pre-cooled PBS containing 2% BSA, and the fluorescence signal values were read using an ACEA Novocyte3000 flow cytometer.
This is another data set of the same source.

Assay [3] has as its target T2, cynomolgus monkey B7H4 on the cell surface (cynomolgus monkey, UniProt A0A2K5U6P5 25-282).
T2 construct: whole, on cells; also called CHOK1/cyno B7H4
T2 sequence: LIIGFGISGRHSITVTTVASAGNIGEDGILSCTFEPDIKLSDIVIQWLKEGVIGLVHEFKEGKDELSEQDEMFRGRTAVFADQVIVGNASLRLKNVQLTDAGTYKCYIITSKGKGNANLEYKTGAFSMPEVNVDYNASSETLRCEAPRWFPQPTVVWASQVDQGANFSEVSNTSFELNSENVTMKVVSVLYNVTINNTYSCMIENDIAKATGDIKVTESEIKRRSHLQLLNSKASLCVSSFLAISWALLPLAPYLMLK
The assay can be described thus: FACS, CHOK1/cyno B7H4 cells. As to the method: as §1

In assay [4] the target is T2, cynomolgus monkey B7H4 on the cell …. The assay can be described thus: FACS, CHOK1/cyno B7H4 cells. On the procedure:
as §2
The source holds these as a separate data set.

Assay [5] addresses T3, human B7H4 on the cell surface (human, UniProt Q7Z7D3 25-282).
T3 construct: whole, on cells; also called CHOK1/hu B7H4; B7H4 on SK-BR-3
T3 sequence (looked up): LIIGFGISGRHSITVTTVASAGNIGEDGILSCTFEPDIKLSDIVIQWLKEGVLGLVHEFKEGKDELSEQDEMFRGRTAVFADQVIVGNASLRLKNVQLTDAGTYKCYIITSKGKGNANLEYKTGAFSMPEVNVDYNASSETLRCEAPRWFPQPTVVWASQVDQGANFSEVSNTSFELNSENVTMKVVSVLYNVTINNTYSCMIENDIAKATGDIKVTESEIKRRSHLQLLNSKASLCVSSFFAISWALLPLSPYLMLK
Briefly: FACS on SK-BR-3 cells, expression supernatant at 1 X and 10X.

Where two headings read alike, the source gives them in different places.

A word on the EC50: it is the concentration giving half of the maximal effect.

B1: PR001476 (antibody, human IgG1, kappa)
heavy: QVQLVESGGGVVQPGRSLRLSCAASGFTFRSFGMHWVRQAPGKGLEWVAVISYDGSNEYYADSVKGRFIISRDNSKDTLYLQMNSLRAGDTAVYYCAKGGGLRWYFAYWGQGTLVTVSS[human IgG1 constant region not written out]
light: EIVMTQSPATLSVSPGERATLSCRASQSISSNLGWYQQKPGQAPRLLIYGASTRATGIPARFSGSGSGTEFTLTISSLQSEDFAVYYCQQYNSWPPLTFGGGTKVEIKRTVAAPSVFIFPPSDEQLKSGTASVVCLLNNFYPREAKVQWKVDNALQSGNSQESVTEQDSKDSTYSLSSTLTLSKADYEKHKVYACEVTHQGLSSPVTKSFNRGEC
notes: Initial fully human antibody from Harbour H2L2 mice, human IgG1; also called 80C8-2E9; RP001476
Consider B1, for which the EC50 was 3.02 nM in assay [1], 3.61 nM in assay [2], 0.886 nM in assay [3] and 1.1 nM in assay [4]. Further, the “Maximum MFI” value is 230000 MFI in assay [1], 353000 MFI in assay [2], 972000 MFI in assay [3] and 1.82e+06 MFI in assay [4].

B2: PR002411 (antibody, human IgG1, kappa)
heavy chain: QVQLVESGGGVVQPGRSLRLSCAASGFTFRSFGMHWVRQAPGKGLEWVAVISYDGSNEYYADSVKGRFIISRDNSKDTLYLQMNSLRAGDTAVYYCAKGGGLRWYFAYWGQGTLVTVSSASTKGPSVFPLAPSSKSTSGGTAALGCLVKDYFPEPVTVSWNSGALTSGVHTFPAVLQSSGLYSLSSVVTVPSSSLGTQTYICNVNHKPSNTKVDKKV[human IgG1 Fc with changes not written out]
light chain: EIVMTQSPATLSVSPGERATLSCRASQSISSNLGWYQQKPGQAPRLLIYGASTRATGIPARFSGSGSGTEFTLTISSLQSEDFAVYYCQQYNSWPPLTFGGGTKVEIKRTVAAPSVFIFPPSDEQLKSGTASVVCLLNNFYPREAKVQWKVDNALQSGNSQESVTEQDSKDSTYSLSSTLTLSKADYEKHKVYACEVTHQGLSSPVTKSFNRGEC
notes: also called PR002411 supernatant
In the case of B2, the binding result in assay [5] is reported as “binds”.

The record behind these values is US20230312722A1 (NONA BIOSCIENCES SUZHOU, published 2023).
